Results as given in paper PMC4336329 (PLoS ONE, 2015).
Out of some 310,000 compounds screened, about 2,200 (0.71%) showed an effect of 50% or more. The effect is printed as a negative number. This is one part of the list.

Biological target: human ether-à-go-go-related gene (hERG) potassium channel (human, UniProt Q12809)
Test: primary screen, population patch clamp on CHO cells stably expressing hERG

Chain of human ether-à-go-go-related gene (hERG) potassium channel (Q12809 whole entry, looked up): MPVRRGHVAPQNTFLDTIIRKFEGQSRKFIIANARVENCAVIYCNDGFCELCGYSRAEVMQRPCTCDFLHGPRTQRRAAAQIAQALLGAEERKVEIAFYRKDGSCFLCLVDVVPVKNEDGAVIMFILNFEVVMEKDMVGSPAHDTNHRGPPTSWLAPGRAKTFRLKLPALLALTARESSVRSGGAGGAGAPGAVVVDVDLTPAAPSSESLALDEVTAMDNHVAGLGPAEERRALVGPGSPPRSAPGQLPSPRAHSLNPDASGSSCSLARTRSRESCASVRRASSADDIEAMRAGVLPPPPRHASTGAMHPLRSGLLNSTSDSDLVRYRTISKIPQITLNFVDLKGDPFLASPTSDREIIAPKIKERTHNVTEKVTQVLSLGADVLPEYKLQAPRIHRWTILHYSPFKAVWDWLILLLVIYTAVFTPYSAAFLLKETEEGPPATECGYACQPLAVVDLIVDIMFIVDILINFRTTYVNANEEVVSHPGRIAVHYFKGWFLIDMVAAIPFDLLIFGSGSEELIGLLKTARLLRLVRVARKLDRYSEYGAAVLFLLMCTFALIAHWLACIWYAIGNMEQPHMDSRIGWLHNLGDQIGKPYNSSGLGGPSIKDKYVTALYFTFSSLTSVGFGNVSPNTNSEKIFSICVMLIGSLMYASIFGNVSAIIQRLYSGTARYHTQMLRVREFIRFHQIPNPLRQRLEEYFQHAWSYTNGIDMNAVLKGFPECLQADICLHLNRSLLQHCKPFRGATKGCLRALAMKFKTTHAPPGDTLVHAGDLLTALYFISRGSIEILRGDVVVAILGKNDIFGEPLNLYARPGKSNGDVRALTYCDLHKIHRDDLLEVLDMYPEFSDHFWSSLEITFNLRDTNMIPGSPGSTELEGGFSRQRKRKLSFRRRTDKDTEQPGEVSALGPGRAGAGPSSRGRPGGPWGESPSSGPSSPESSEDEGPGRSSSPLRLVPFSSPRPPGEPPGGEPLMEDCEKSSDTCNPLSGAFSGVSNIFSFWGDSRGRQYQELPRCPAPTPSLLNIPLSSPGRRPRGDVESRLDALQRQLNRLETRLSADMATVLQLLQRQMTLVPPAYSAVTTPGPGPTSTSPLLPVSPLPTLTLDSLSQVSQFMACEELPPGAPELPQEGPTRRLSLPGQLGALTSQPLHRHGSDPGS

Row | Structure (SMILES) | hERG current change (%, negative = inhibition) at 1uM
1 | O=C(Nc1ccccc1)c1cccc(=O)o1 | 17.3%
2 | CCN1CCN(c2nc(NCCO)c3ccccc3n2)CC1.Cl | 9%
3 | COc1cccc(OC)c1C(=O)Nc1ccc(CN2CCOCC2)cc1 | 7.48%
4 | CC1=NNC(=O)C1CCC(=O)N/N=C(/C)c1ccc([N+](=O)[O-])cc1 (stereo not shown) | 4.22%
5 | CCn1c2ccccc2c2cc(/C=N/NC(=O)c3ccncc3)ccc21 | 22.4%
6 | CC(C)(C)NCC(=O)c1c[nH]c2ccccc12 | 8.44%
7 | Cc1ccc(S(=O)(=O)N(C)c2nc3ccccc3n3c(C(C)C)nnc23)cc1 | 12.2%
8 | CN(CC(=O)OCC(=O)NCc1ccccc1)S(=O)(=O)c1ccc(Cl)cc1 | 6.55%
9 | COc1ncccc1C(=O)N1CCC(n2nccc2NC(=O)CC(C)C)CC1 | 17.1%
10 | COc1cc(C(=O)OCC(=O)Nc2c(C)n(C)n(-c3ccccc3)c2=O)c([N+](=O)[O-])cc1OC | 15%
11 | CCOC(=O)c1c(-c2ccccc2)csc1NC(=O)c1cc2ccccc2oc1=O | 5.41%
12 | O=C(NCCCn1ccnc1)c1ccc(-c2ccccc2)cc1 | -8.81%
13 | CC1Cc2ccccc2N1C(=O)c1ccc(N2CCCC2)c([N+](=O)[O-])c1 (stereo not shown) | 13.9%
14 | COc1ccc(/C=C2\N=C(C)OC2=O)cc1OC | 12%
15 | O=C(c1nc(-c2ccccc2)n(-c2ccccc2)n1)N1CCN(S(=O)(=O)c2ccccc2)CC1 | 7.25%
16 | CC(C)NC(=O)C1(c2ccccc2)CCOCC1 | 9.33%
17 | CCOc1cc(S(=O)(=O)Nc2ccc(CC)cc2)ccc1Cl | -1.58%
18 | COc1cc(NC(=O)Nc2cccc([N+](=O)[O-])c2)cc(OC)c1 | 5.53%
19 | COc1ccc(OC)c(NC(=O)N2C[C@H]3C[C@@H](C2)c2cccc(=O)n2C3)c1 | -11.2%
20 | O=C(CCc1ccccc1)NNC(=O)c1ccccc1Br | 7.53%
21 | CCCn1nnc(NC(=O)c2ccc3ccccc3c2)n1 | -7.02%
22 | O=C(CCC1CCCCC1)Nc1ccccc1O | 4.48%
23 | Cc1cc(C)c(C)c(S(=O)(=O)Nc2ccc3cn[nH]c3c2)c1C | 8.9%

Row | Structure (SMILES) | hERG current change (%, negative = inhibition) at 1uM
24 | OCCCNC(=S)Nc1ccc(Nc2ccccc2)cc1 | 6.53%
25 | COc1ccccc1NC(=O)COC(=O)CCS(=O)(=O)c1ccc(C)cc1 | 17.2%
26 | CN(Cc1ccccc1F)C(=O)C(Cc1ccccc1)NC(=O)c1ccccc1 (stereo not shown) | -7.1%
27 | Fc1c(F)c(F)c(CSc2nc3ccccc3[nH]2)c(F)c1F | 5.9%
28 | COc1ccccc1N1CC(C)(C)C(=O)N(C(=O)c2ccc(C)cc2)C1=S | 7.12%
29 | COc1ccc(C)cc1S(=O)(=O)Nc1ccc2c(c1)N(C(C)=O)CCC2 | 12.9%
30 | Cc1ccc(C(C)(C)C)c(OCCCCN2CCCC2)c1 | -0.547%
31 | CC1C=CCC2C(=O)N(c3cccc(C(=O)N4CCCCCC4)c3)C(=O)C12 (stereo not shown) | 4.96%
32 | Cc1onc(-c2ccccc2)c1C(=O)N/N=C/c1ccccc1OC(C)C | 9.46%
33 | Cc1cccc(Cn2c(NCCO)nc3c2c(=O)n(C)c(=O)n3C)c1 | 8.23%
34 | CCc1ccc(C2=NN(C(C)=O)C(c3ccco3)C2)cc1 (stereo not shown) | 0.829%
35 | C#Cc1ccc([C@@H]2C=C(C(=O)N3CCN(Cc4ccc5c(c4)OCO5)CC3)O[C@H](OCC)[C@H]2CCCO)cc1 | -3.77%
36 | O=c1cc(-c2ccccc2)cc(-c2ccccc2)n1CCO | 5.1%
37 | Cc1cc(Cc2c(O)[nH]c(=S)[nH]c2=O)ccc1OC(C)C | 13.8%
38 | CC(C)CC(=O)Nc1cccc(NC(=O)CC(C)C)n1 | 13.2%
39 | CCOC(=O)c1nnn(-c2nonc2N)c1-c1ccccc1Cl | 14.9%
40 | COc1cccc(C(=O)Nc2ccc3c(c2)C(=O)c2ccccc2C3=O)c1 | 6.36%
41 | O=C1N=C(N2CCOCC2)CS1 | 8.27%
42 | Cc1cccc(C)c1NC(=O)CCCSc1nnc(N)s1 | 8.09%
43 | COc1ccccc1NS(=O)(=O)c1cccc(NC(=O)c2[nH]c(C)c(C(C)=O)c2C)c1 | -1.44%
44 | CCOC(=O)c1c[nH]c2c(Cl)ccc(Cl)c2c1=O | 5.48%
45 | COc1cccc(CNC(=O)CSc2nc3c(oc4ccccc43)c(=O)n2CC2CCCO2)c1 (stereo not shown) | 2.07%
46 | C=CCN(c1ccccc1)S(=O)(=O)c1cccc(C(=O)NC2CCC(O)CC2)c1 (stereo not shown) | -2.58%
